{
  "source": "PubChem BioAssay (NCI)",
  "test_in_all_cases": "NCI tumour cell line growth inhibition, 48 h",
  "key": {"[1]": {"tested_on": "MALME-3M melanoma"}, "[2]": {"tested_on": "P388/ADR leukemia"}, "[3]": {"tested_on": "OVCAR-5 ovarian"}, "[4]": {"tested_on": "P388 leukemia"}, "[5]": {"tested_on": "HT29 colon"}, "[6]": {"tested_on": "LOX IMVI melanoma"}, "[7]": {"tested_on": "HL-60(TB) leukemia"}, "[8]": {"tested_on": "UACC-257 melanoma"}, "[9]": {"tested_on": "SN12C renal"}, "[10]": {"tested_on": "SK-MEL-5 melanoma"}},
  "note": "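Following 48 hours of exposure in 96-well plates, responses at five concentrations were used to interpolate endpoints linearly. GI50 = concentration required for 50% inhibition of growth.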 For part of its entries the source gives two or more results. Only these are listed. There may be further records. For some assays here: The tests behind the records often covered other concentration ranges, which the source does not state; some values may only mark the edge of a range. For some assays here: Values that stand side by side are repeated measurements in other runs, samples, wells, individuals or studies. Brackets tell where a record comes from. Letters hold for one entry only.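 TGI: concentration producing complete growth inhibition.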",
  "data": [
    {"smiles": "CC12CCC3C(CCC4=CC(O)CCC43C=O)C1(O)CCC2c1ccc(=O)oc1", "note": "(stereo unspecified)", "values": [
      {"measurement": "GI50", "setting": "[1]", "value": "4.06 nM [mean of 3 tests] and 158 nM [mean of 4 tests]"},
      {"measurement": "TGI", "setting": "[1]", "value": "8.23 nM [mean of 3 tests] and 189 nM [mean of 4 tests]"},
      {"measurement": "TGI", "setting": "[2]", "value": "321 nM and 313 µM"},
      {"measurement": "TGI", "setting": "[3]", "value": "11.7 nM and 168 nM"},
      {"measurement": "TGI", "setting": "[4]", "value": "111 nM and 198 µM"},
      {"measurement": "TGI", "setting": "[5]", "value": "43.5 nM and 1.16 µM"},
      {"measurement": "TGI", "setting": "[6]", "value": "30.9 nM and 580 nM"},
      {"measurement": "TGI", "setting": "[7]", "value": "10.8 nM and 500 µM"},
      {"measurement": "TGI", "setting": "[8]", "value": "62.4 nM and 1.39 µM"},
      {"measurement": "TGI", "setting": "[9]", "value": "141 nM and 500 µM"}
    ]},
    {"smiles": "O=C(c1ccc(F)c(F)c1Nc1ccc(I)cc1F)N1CC(O)([C@@H]2CCCCN2)C1", "values": [
      {"measurement": "GI50", "setting": "[10]", "value": "< 28.8 nM [sample A, mean of 2 tests] and 796 nM [sample B, mean of 2 tests]"}
    ]}
  ]
}
